# From patent US20260184782A1 (TWIST BIOSCIENCE, published 2026)
# T1: TIGIT (UniProt Q495A1 22-141, limits assumed)
# T1 construct: construct not described; also called T cell immunoreceptor with Ig and ITIM domains
# T1 sequence (looked up): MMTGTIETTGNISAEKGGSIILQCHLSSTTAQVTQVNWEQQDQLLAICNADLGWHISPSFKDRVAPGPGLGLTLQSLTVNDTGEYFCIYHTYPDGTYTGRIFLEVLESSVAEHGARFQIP
# T2: TIGIT (UniProt Q495A1 22-141, limits assumed)
# T2 construct: also called T cell immunoreceptor with Ig and ITIM domains; hTIGIT
# T2 sequence (looked up): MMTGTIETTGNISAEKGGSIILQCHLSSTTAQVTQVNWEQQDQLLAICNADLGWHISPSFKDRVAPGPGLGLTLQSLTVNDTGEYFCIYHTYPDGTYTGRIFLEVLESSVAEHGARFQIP
# What was measured:
# TIGIT [1] = target: T1, TIGIT; assay: Carterra SPR, VHH-Fc
# TIGIT [2] = target: T1, TIGIT; assay: ELISA
# TIGIT [3] = target: T2, TIGIT; assay: SPR (Carterra), VHH-Fc
# TIGIT [4] = target: T2, TIGIT; assay: ELISA
Binder,Kd (TIGIT [1]),koff (TIGIT [1]),kon (TIGIT [1]),ELISA (TIGIT [2]),Kd (TIGIT [3]),koff (TIGIT [3]),kon (TIGIT [3]),ELISA (TIGIT [4])
TIGIT-30-53 VHH-Fc (Fc fusion) EVQLVESGGGLVQAGGSLRLSCAASGLTFSNYVMGWFRQAPGKERESVAAINWDSARTYYADSVKGRFTISADNAKNTVYLQMNSLKPEDTAVYYCASAGRWGQGTQVTVSSGGGGS[in this place human IgG1 Fc with C220S (EU numbers)],78 nM,41 s⁻¹,5.3e+08 M⁻¹ s⁻¹,7.6,–,–,–,–
TIGIT-30-20 VHH-Fc (Fc fusion) EVQLVESGGGLVQAGGSLRLSCAASGPTFSIYDMGWFRQAPGKEREFVAVINWSRGSTFYADSVKGRFTISADNAKNTVYLQMNSLKPEDTAVYYCAAGVWSSLRHTAANWGQGTQVTVSSGGGGS[in this place human IgG1 Fc with C220S (EU numbers)],74 nM,0.14 s⁻¹,1.9e+06 M⁻¹ s⁻¹,4.6,–,–,–,–
TIGIT-30-14 VHH-Fc (Fc fusion) EVQLVESGGGLVQAGGSLRLSCAASGPTFSIYDMGWFRQAPGKEREFVAAITWNSGRTNYADSVKGRFTISADNAKNTVYLQMNSLKPEDTAVYYCAAGAWSSLRKTAASWGQGTQVTVSSGGGGS[in this place human IgG1 Fc with C220S (EU numbers)],75 nM,0.01 s⁻¹,140000 M⁻¹ s⁻¹,9.9,–,–,–,–
TIGIT-30-25 VHH-Fc (Fc fusion) EVQLVESGGGLVQAGGSLRLSCAASGPTFSIYDMGWFRQAPGKEREFVASTIWSRGDTYYADSVKGRFTISADNAKNTVYLQMNSLKPEDTAVYYCAAGVWSSLRHTAANWGQGTQVTVSSGGGGS[in this place human IgG1 Fc with C220S (EU numbers)],117 nM,0.004 s⁻¹,34000 M⁻¹ s⁻¹,9.3,–,–,–,–
TIGIT-30-15 VHH-Fc (Fc fusion) EVQLVESGGGLVQAGGSLRLSCAASGFTFSGNWMGWFRQAPGKEREWVSGISSGGGRTYYADSVKGRFTISADNAKNTVYLQMNSLKPEDTAVYYCAADVWYGSTWRNWGQGTQVTVSSGGGGS[in this place human IgG1 Fc with C220S (EU numbers)],55 nM,0.007 s⁻¹,130000 M⁻¹ s⁻¹,9.3,–,–,–,–
TIGIT-30-22 VHH-Fc (Fc fusion) EVQLVESGGGLVQAGGSLRLSCAASGFTLSGNWMGWFRQAPGKEREFVASISSSGVSKHYADSVKGRFTISADNAKNTVYLQMNSLKPEDTAVYYCAADVWYGSTWRNWGRGTQVTVSSGGGGS[in this place human IgG1 Fc with C220S (EU numbers)],811 nM,0.037 s⁻¹,45000 M⁻¹ s⁻¹,7.6,–,–,–,–
TIGIT-30-16 VHH-Fc (Fc fusion) EVQLVESGGGLVQAGGSLRLSCAASGFPFSEYPMGWFRQAPGKEREFVAVVNWNGDSTYYADSVKGRFTISADNAKNTVYLQMNSLKPEDTAVYYCANFNRDWGQGTQVTVSSGGGGS[in this place human IgG1 Fc with C220S (EU numbers)],116 nM,0.056 s⁻¹,480000 M⁻¹ s⁻¹,7.9,–,–,–,–
TIGIT-30-17 VHH-Fc (Fc fusion) EVQLVESGGGLVQAGGSLRLSCAASGSIFNIGMGWFRQAPGKEREWVSSIYSNGHTYYADSVKGRFTISADNAKNTVYLQMNSLKPEDTAVYYCANSNKPKFDWGQGTQVTVSSGGGGS[in this place human IgG1 Fc with C220S (EU numbers)],311 nM,130 s⁻¹,4.3e+08 M⁻¹ s⁻¹,6.7,–,–,–,–
TIGIT-30-19 VHH-Fc (Fc fusion) EVQLVESGGGLVQAGGSLRLSCAASGRTFSSYAMMGWFRQAPGKEREFLAIITDGSKTLYADSVKGRFTISADNAKNTVYLQMNSLKPEDTAVYYCAAQFTLARHLVWGQGTQVTVSSGGGGS[in this place human IgG1 Fc with C220S (EU numbers)],417 nM,79 s⁻¹,1.9e+08 M⁻¹ s⁻¹,6.4,–,–,–,–
TIGIT-30-41 VHH-Fc (Fc fusion) EVQLVESGGGLVQAGGSLRLSCAASGRTFSSYAMMGWFRQAPGKEREFLAIITDGSKTLYADSVKGRFTISADNAKNTVYLQMNSLKPEDTAVYYCAAQFILARHLVWGQGTQVTVSSGGGGS[in this place human IgG1 Fc with C220S (EU numbers)],309 nM,74 s⁻¹,2.4e+08 M⁻¹ s⁻¹,8.7,–,–,–,–
TIGIT-30-23 VHH-Fc (Fc fusion) EVQLVESGGGLVQAGGSLRLSCAASGRAFRRYTMGWFRQAPGKEREFVAAIRWSGGTTFYADSVKGRFTISADNAKNTVYLQMNSLKPEDTAVYYCAAEWAAMKDWGQGTQVTVSSGGGGS[in this place human IgG1 Fc with C220S (EU numbers)],–,0.29 s⁻¹,440 M⁻¹ s⁻¹,4.1,–,–,–,–
TIGIT-30-26 VHH-Fc (Fc fusion) EVQLVESGGGLVQAGGSLRLSCAASGRTYYAMGWFRQAPGKEREFLAIITDGSKTLYADSVKGRFTISADNAKNTVYLQMNSLKPEDTAVYYCAAQFTLARHLVWGQGTQVTVSSGGGGS[in this place human IgG1 Fc with C220S (EU numbers)],347 nM,0.0099 s⁻¹,28000 M⁻¹ s⁻¹,6.1,–,–,–,–
TIGIT-30-28 VHH-Fc (Fc fusion) EVQLVESGGGLVQAGGSLRLSCAASGRTFESYRMGWFRQAPGKEREFVGGINWSGRTYYADSVKGRFTISADNAKNTVYLQMNSLKPEDTAVYYCAARRLYSGSYLDWGQGTQVTVSSGGGGS[in this place human IgG1 Fc with C220S (EU numbers)],147 nM,130 s⁻¹,8.9e+08 M⁻¹ s⁻¹,7.6,–,–,–,–
TIGIT-30-31 VHH-Fc (Fc fusion) EVQLVESGGGLVQAGGSLRLSCAASGPTFSWTMMGWFRQAPGKEREFLAIITDGSKTLYADSVKGRFTISADNAKNTVYLQMNSLKPEDTAVYYCAAQFTLARHLVWGQGTQVTVSSGGGGS[in this place human IgG1 Fc with C220S (EU numbers)],450 nM,450 s⁻¹,1e+09 M⁻¹ s⁻¹,3.8,–,–,–,–
TIGIT-30-33 VHH-Fc (Fc fusion) EVQLVESGGGLVQAGGSLRLSCAASGFTLENNMMGWFRQAPGKERELVSAIGWSGASTYYADSVKGRFTISADNAKNTVYLQMNSLKPEDTAVYYCAANLRGDNWGQGTQVTVSSGGGGS[in this place human IgG1 Fc with C220S (EU numbers)],1550 nM,0.18 s⁻¹,120000 M⁻¹ s⁻¹,3.8,–,–,–,–
TIGIT-30-44 VHH-Fc (Fc fusion) EVQLVESGGGLVQAGGSLRLSCAASGVTLDLYAMGWFRQAPGKEREFVAGIWRSGGSTVYADSVKGRFTISADNAKNTVYLQMNSLKPEDTAVYYCATWTTTWGRNRDWGQGTQVTVSSGGGGS[in this place human IgG1 Fc with C220S (EU numbers)],584 nM,360 s⁻¹,6.1e+08 M⁻¹ s⁻¹,3.5,–,–,–,–
TIGIT-30-45 VHH-Fc (Fc fusion) EVQLVESGGGLVQAGGSLRLSCAASGGTFSGGFMGWFRQAPGKEREWVASVLRGGYTWYADSVKGRFTISADNAKNTVYLQMNSLKPEDTAVYYCANGGSSYWGQGTQVTVSSGGGGS[in this place human IgG1 Fc with C220S (EU numbers)],736 nM,1.5 s⁻¹,2.1e+06 M⁻¹ s⁻¹,3.3,–,–,–,–
TIGIT-30-46 VHH-Fc (Fc fusion) EVQLVESGGGLVQAGGSLRLSCAASGRTFSTYASMWWFRQAPGKEREFLAIITDGSKTLYADSVKGRFTISADNAKNTVYLQMNSLKPEDTAVYYCAGSWSYPGLTWGQGTQVTVSSGGGGS[in this place human IgG1 Fc with C220S (EU numbers)],206 nM,120 s⁻¹,5.8e+08 M⁻¹ s⁻¹,5.9,–,–,–,–
TIGIT-30-55 (VHH-Fc) (Fc fusion) EVQLVESGGGLVQAGGSLRLSCAASGNTFSGGFMGWFRQAPGKEREWVASVLRGGYTWYADSVKGRFTISADNAKNTVYLQMNSLKPEDTAVYYCATGWQSTTKSQGWGQGTQVTVSSGGGGS[in this place human IgG1 Fc with C220S (EU numbers)],–,–,–,–,85 nM,0.003 s⁻¹,35000 M⁻¹ s⁻¹,6
TIGIT-30-56 (VHH-Fc) (Fc fusion) EVQLVESGGGLVQAGGSLRLSCAASGLTISTYPMGWFRQAPGKEREFVAAVNWSGRRELYADSVKGRFTISADNAKNTVYLQMNSLKPEDTAVYYCAAFREYHWGQGTQVTVSSGGGGS[in this place human IgG1 Fc with C220S (EU numbers)],–,–,–,–,214 nM,160 s⁻¹,7.5e+08 M⁻¹ s⁻¹,4.6
TIGIT-30-57 (VHH-Fc) (Fc fusion) EVQLVESGGGLVQAGGSLRLSCAASGPTFSIYDMGWFRQAPGKEREFVAAITWNSGRIGYADSVKGRFTISADNAKNTVYLQMNSLKPEDTAVYYCAAGVWSSLRHTAANWGQGTQVTVSSGGGGS[in this place human IgG1 Fc with C220S (EU numbers)],–,–,–,–,95 nM,95 s⁻¹,–,5.2
